Part of at least one peptide drawing is inferred or uncertain, most often the ends. Some of these results come from one statement about several compounds together. Non-standard residues stand in square brackets, D forms with d. Residues, ends and D or L forms follow the SMILES beside them. *: point of attachment. Cholesteryloxycarbonyl = CC(C)CCC[C@@H](C)[C@H]1CC[C@H]2[C@@H]3CC=C4C[C@@H](OC(=O)*)CC[C@]4(C)[C@H]3CC[C@]12C; PEG3 = NCCOCCOCCOCCC(=O)O; Pra = C#CC[C@H](N)C(=O)O; Aib = CC(C)(N)C(=O)O; βAla = NCCC(=O)O
Tests used:
[1] = system: endosomes of Jurkat lymphocytes; assay: Endosome disruption in Jurkat lymphocytes: release of carboxyfluorescein from disulfide probe Compound 2, flow cytometry; details: for Efficacy (% of 1) / EC50: Table 2, 14 h; for Efficacy (% of 1): % of the effect of compound 1, calculated span of dose-response curve, ± standard deviation; for EC50: read-out: Potency, EC50 ± standard deviation, Jurkat lymphocytes, disulfide-linked fluorescent probe (2.5 μM)
Method in brief: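 Human Jurkat cells treated with compounds plus disulfide probe Compound 2 (2.5 μM) for 14 h at 37 °C. Cytoplasmic release of pH-sensitive fluorophore Compound 3 quantified by flow cytometry. IC50 by non-linear regression; efficacy as % fluorescence change relative to Compound 1 maximum (100%).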

[2] = system: SKBR3 breast cancer cells; assay: Cytotoxicity of Herceptin-SS-CME conjugate towards SKBR3 cells with or without peptide 84; assay type: cell-based; details: SKBR3, peptide 84 at 1 μM
Jurkat lymphocytes = details: read-out: Toxicity, Table 3, 48 h at 37° C., footnote a: non-toxic and soluble in cell culture medium at this concentration
Protocol: The effects of the compounds of the invention on human Juikat leukemia cells were evaluated using flow cytometry-based assays of potency, efficacy, and toxicity. […] Analysis of flow cytometry data by non-linear regression was used to determine IC50 values for potency with the efficacy expressed as a percentage. […] Dose-dependent effects on cellular viability after 48 h at 37° C. in culture were also measured by flow cytometry.
The # represents the compound number in accordance with Tables A, B, and C. Concentrations of compound stock solutions were determined by absorbance measurements at 280 nm. Efficacy was determined as % change in cellular fluorescence relative to the maximal response of Compound 1, defined as 100%. Potencies and efficacies in Jurkat lymphocytes were measured by flow cytometry after treatment of cells with the compounds listed and the fluorescent probe Compound 2 (2.5 μM) for 14 hours. Toxicity to this cell line was determined by flow cytometry analysis of light scattering and counterstaining with PI after treatment for 48 h at 37° C. in culture. […] N.D., not determined.

Compound	Endosome disruption activity (in words) ([1]; Jurkat endosome disruption assay)	Efficacy (% of max. 1) ([1]; Table 1, % change in cellular fluorescence relative to maximal response of Compound 1 (100%), Jurkat, 14 hours) [%]	Enhancement of toxicity of Herceptin-SS-CME [2]	IC50 (Jurkat lymphocytes) [nM]	Efficacy (% of 1) ([1]; Jurkat) [%]	EC50 [1] [nM]
C#CC[C@H](NC(=O)[C@H](CCC(=O)O)NC(=O)[C@H](CCC(=O)O)NC(=O)CCNC(=O)CCNC(=O)O[C@H]1CC[C@@]2(C)C(=CC[C@H]3[C@@H]4CC[C@H]([C@H](C)CCCC(C)C)[C@@]4(C)CC[C@@H]32)C1)C(=O)NCCOCCOCCOCCC(=O)NCCOCCOCCOCCC(=O)NC(C)(C)C(=O)NC(C)(C)C(=O)NC(C)(C)C(=O)NC(C)(C)C(=O)N[C@@H](Cc1ccc(O)cc1)C(=O)N[C@@H](Cc1ccc(O)cc1)C(=O)N[C@@H](C)C(=O)N[C@@H](Cc1ccc(O)cc1)C(=O)N[C@@H](Cc1ccc(O)cc1)C(=O)N1CCC[C@H]1C(=O)N1CCC[C@H]1C(=O)N[C@H](C(=O)N[C@H](C(N)=O)C(C)C)C(C)C [Compound 38, R″ = BEEZOOUUUUYYAYYPPVV-CONH2] ({Cholesteryloxycarbonyl-βAla-βAla}-EE[Pra][PEG3][PEG3][Aib][Aib][Aib][Aib]YYAYYPPVV-NH2)	highly potent, active, and soluble in PBS	112	–	–	–	–
CC(C)CCC[C@@H](C)[C@H]1CC[C@H]2[C@@H]3CC=C4C[C@@H](OC(=O)NCCC(=O)NCCC(=O)N[C@@H](CCC(=O)O)C(=O)N[C@@H](CCC(=O)O)C(=O)NCCOCCOCCOCCC(=O)NCCOCCOCCOCCC(=O)NC(C)(C)C(=O)NC(C)(C)C(=O)NC(C)(C)C(=O)NC(C)(C)C(=O)N[C@@H](Cc5c[nH]c6ccccc56)C(=O)N[C@@H](Cc5ccc(O)cc5)C(=O)N[C@@H](C)C(=O)N[C@@H](Cc5c[nH]c6ccccc56)C(=O)N[C@@H](Cc5ccc(O)cc5)C(=O)N[C@@H](C)C(=O)N[C@@H](Cc5c[nH]c6ccccc56)C(=O)N[C@@H](Cc5ccc(O)cc5)C(=O)N5CCC[C@H]5C(=O)N5CCC[C@H]5C(=O)N[C@H](C(=O)N[C@H](C(N)=O)C(C)C)C(C)C)CC[C@]4(C)[C@H]3CC[C@]12C [Compound 84, Ch2-EEOOUUUUWYAWYAWYPPVV-NH2] ({Cholesteryloxycarbonyl-βAla-βAla}-EE[PEG3][PEG3][Aib][Aib][Aib][Aib]WYAWYAWYPPVV-NH2)	–	–	over 100 fold	11000 ± 2000	134 ± 1	40 ± 10
CC(C)CCC[C@@H](C)[C@H]1CC[C@H]2[C@@H]3CC=C4C[C@@H](OC(=O)NCCC(=O)NCCC(=O)N[C@@H](CCC(=O)O)C(=O)N[C@@H](CCC(=O)O)C(=O)NCCOCCOCCOCCC(=O)NCCOCCOCCOCCC(=O)NC(C)(C)C(=O)NC(C)(C)C(=O)NC(C)(C)C(=O)NC(C)(C)C(=O)N[C@@H](Cc5ccc(O)cc5)C(=O)N[C@@H](Cc5ccc(O)cc5)C(=O)N[C@@H](C)C(=O)N[C@@H](Cc5ccc(O)cc5)C(=O)N[C@@H](Cc5ccc(O)cc5)C(=O)N[C@@H](C)C(=O)N[C@@H](Cc5ccc(O)cc5)C(=O)N[C@@H](Cc5ccc(O)cc5)C(=O)N5CCC[C@H]5C(=O)N5CCC[C@H]5C(=O)N[C@H](C(=O)N[C@H](C(N)=O)C(C)C)C(C)C)CC[C@]4(C)[C@H]3CC[C@]12C [Compound 87, Ch2-EEOOUUUUYYAYYAYYPPVV-NH2] ({Cholesteryloxycarbonyl-βAla-βAla}-EE[PEG3][PEG3][Aib][Aib][Aib][Aib]YYAYYAYYPPVV-NH2)	–	–	–	–	>125	< 50

Reference: patent US10766928B2, “Targeted conformationally-constrained kinked endosomal disrupting peptides” (priority 2012, dated 2020)
